This is an account of results in US11618753B2 (priority 2018, dated 2023).

Where a name gives a salt, the structure may show the parent alone.

The subject of this assay is MLKL phosphorylation, HT29-L23 human colorectal adenocarcinoma cells. In words: cells. The settings on record: read-out: pMLKL HCS Cell Assay (IC50, uM).
On to `Nc1ncnn2c(-c3cnc(F)c(C(=O)Nc4cnn(CC5CC5)c4)c3)cc(C(F)(F)F)c12` [Example 268, 5-[4-amino-5-(trifluoromethyl)pyrrolo[2,1-f][1,2,4]triazin-7-yl]-N-[1-(cyclopropylmethyl)-1H-pyrazol-4-yl]-2-fluoropyridine-3-carboxamide], for which the IC50 worked out at 0.122 µM.
As to `Cc1ncc(-c2cc(C(F)(F)F)c3c(N)ncnn23)cc1C(=O)N[C@@H]1CN(C(=O)C(C)C)C[C@@H]1F` [Example 353, 5-[4-amino-5-(trifluoromethyl)pyrrolo[2,1-f][1,2,4]triazin-7-yl]-N-[(3R,4S)-4-fluoro-1-(2-methylpropanoyl)pyrrolidin-3-yl]-2-methylpyridine-3-carboxamide], the IC50 was 0.058 µM.
Then `Nc1ncnn2c(-c3ccc(F)c(C(=O)N[C@@H]4CN(C(=O)C5CCC(F)(F)C5)C[C@@H]4F)c3)cc(C(F)(F)F)c12` (stereo partly drawn) [Example 257, 5-[4-amino-5-(trifluoromethyl)pyrrolo[2,1-f][1,2,4]triazin-7-yl]-N-[(3R,4S)-1-(3,3-difluorocyclopentanecarbonyl)-4-fluoropyrrolidin-3-yl]-2-fluorobenzamide], with 0.032 µM.
Then `COc1ncc(-c2c(C#N)cc3c(N)ncnn23)cc1C(=O)NCC[C@@H](O)c1ccc(Cl)cc1` [Example 547, (R)-5-(4-amino-6-cyanopyrrolo[2,1-f][1,2,4]triazin-7-yl)-N-(3-(4-chlorophenyl)-3-hydroxypropyl)-2-methoxynicotinamide], with 0.095 µM; and `COc1ncc(-c2cc(C(F)(F)F)c3c(N)ncnn23)cc1C(=O)N[C@@H]1CN(C(=O)OC(C)C)C[C@@H]1F` [Example 1443, propan-2-yl (3R,4S)-3-{5-[4-amino-5-(trifluoromethyl)pyrrolo[2,1-f][1,2,4]triazin-7-yl]-2-methoxypyridine-3-amido}-4-fluoropyrrolidine-1-carboxylate], with 0.0029 µM; and `COc1ncc(-c2cc(CN3CCC(C(F)(F)F)CC3)c3c(N)ncnn23)cc1C(=O)N[C@@H]1CN(C(=O)c2ccccc2F)C[C@@H]1F` [Example 1632, 5-(4-amino-5-{[4-(trifluoromethyl)piperidin-1-yl]methyl}pyrrolo[2,1-f][1,2,4]triazin-7-yl)-N-[(3R,4S)-4-fluoro-1-(2-fluorobenzoyl)pyrrolidin-3-yl]-2-methoxypyridine-3-carboxamide], with 0.0041 µM.
Then `Cc1cc(F)c(-c2cc(C(F)(F)F)c3c(N)ncnn23)cc1C(=O)N[C@@H]1CN(C(=O)c2cc(Cl)ccn2)C[C@@H]1F` [Example 849, 5-[4-amino-5-(trifluoromethyl)pyrrolo[2,1-f][1,2,4]triazin-7-yl]-N-[(3R,4S)-1-(4-chloropyridine-2-carbonyl)-4-fluoropyrrolidin-3-yl]-4-fluoro-2-methylbenzamide], with 0.014 µM.
Regarding `Nc1ncnn2c(-c3cc(F)cc(C(=O)N[C@@H]4CN(C(=O)c5ccccc5F)C[C@@H]4F)c3)cc(C(F)(F)F)c12` [Example 607, 3-[4-amino-5-(trifluoromethyl)pyrrolo[2,1-f][1,2,4]triazin-7-yl]-5-fluoro-N-[(3R,4S)-4-fluoro-1-(2-fluorobenzoyl)pyrrolidin-3-yl]benzamide], the IC50 was found to be 0.0084 µM.
As to `Cc1ncc(-c2cc(C(F)(F)F)c3c(N)ncnn23)cc1C(=O)Nc1ccn(Cc2ccccc2)n1` [Example 1726, 5-(4-amino-5-(trifluoromethyl)pyrrolo[2,1-f][1,2,4]triazin-7-yl)-N-(1-benzyl-1H-pyrazol-3-yl)-2-methylnicotinamide], the concentration for half-maximal inhibition (IC50) was 0.0014 µM.
Then `CCC(O)(C(=O)N1C[C@H](F)[C@H](NC(=O)c2cc(-c3cc(C(F)(F)F)c4c(N)ncnn34)ccc2C)C1)C(F)(F)F` (stereo partly drawn) [Example 984, 5-[4-amino-5-(trifluoromethyl)pyrrolo[2,1-f][1,2,4]triazin-7-yl]-N-[(3R,4S)-4-fluoro-1-[2-hydroxy-2-(trifluoromethyl)butanoyl]pyrrolidin-3-yl]-2-methylbenzamide], with 0.0044 µM.
On to `Nc1ncnn2c(-c3ccc(OC(F)F)c(C(=O)N[C@@H]4CN(C(=O)C5CC5(F)F)C[C@@H]4F)c3)cc(C(F)(F)F)c12` (stereo partly drawn) [Example 1086, 5-[4-amino-5-(trifluoromethyl)pyrrolo[2,1-f][1,2,4]triazin-7-yl]-N-[(3R,4S)-1-(2,2-difluorocyclopropanecarbonyl)-4-fluoropyrrolidin-3-yl]-2-(difluoromethoxy)benzamide], for which the IC50 came out at 0.042 µM.
Then `Cc1cc(F)c(-c2cc(C(F)(F)F)c3c(N)ncnn23)cc1C(=O)N[C@@H]1CN(C(=O)C2CCC(F)(F)C2)C[C@@H]1F` (stereo partly drawn) [Example 417, 5-[4-amino-5-(trifluoromethyl)pyrrolo[2,1-f][1,2,4]triazin-7-yl]-N-[(3R,4S)-1-(3,3-difluorocyclo-pentanecarbonyl)-4-fluoropyrrolidin-3-yl]-4-fluoro-2-methylbenzamide, TFA], with 0.0079 µM.
Then `COc1cc(F)c(-c2cc(C(F)(F)F)c3c(N)ncnn23)cc1C(=O)N[C@@H]1CN(C(=O)C(C)(C)F)C[C@@H]1F` [Example 868, 5-[4-amino-5-(trifluoromethyl)pyrrolo[2,1-f][1,2,4]triazin-7-yl]-4-fluoro-N-[(3R,4S)-4-fluoro-1-(2-fluoro-2-methylpropanoyl)pyrrolidin-3-yl]-2-methoxybenzamide], with 0.0092 µM.
Turning to `COc1cc(C(=O)N[C@@H]2CN(C(=O)C3CC(F)C3)C[C@@H]2F)cc(-c2cc(C(F)(F)F)c3c(N)ncnn23)c1` (stereo partly drawn) [Example 574, 3-[4-amino-5-(trifluoromethyl)pyrrolo[2,1-f][1,2,4]triazin-7-yl]-N-[(3R,4S)-4-fluoro-1-(3-fluorocyclobutanecarbonyl)pyrrolidin-3-yl]-5-methoxybenzamide], the half-inhibitory concentration (IC50) came out at 0.022 µM.
For `COc1ncc(-c2cc(C(F)(F)F)c3c(N)ncnn23)cc1C(=O)N[C@@H]1CN(S(=O)(=O)c2ccccc2C#N)C[C@@H]1F` [Example 502, 5-[4-amino-5-(trifluoromethyl)pyrrolo[2,1-f][1,2,4]triazin-7-yl]-N-[(3R,4S)-1-(2-cyanobenzenesulfonyl)-4-fluoropyrrolidin-3-yl]-2-methoxypyridine-3-carboxamide] the value was 0.058 µM; for `Nc1ncnn2c(-c3ccc(OCC(F)(F)F)c(C(=O)N[C@@H]4CN(C(=O)C5CCC(F)(F)CC5)C[C@@H]4F)c3)cc(C(F)(F)F)c12` [Example 1073, 5-[4-amino-5-(trifluoromethyl)pyrrolo[2,1-f][1,2,4]triazin-7-yl]-N-[(3R,4S)-1-(4,4-difluorocyclohexanecarbonyl)-4-fluoropyrrolidin-3-yl]-2-(2,2,2-trifluoroethoxy)benzamide], 0.215 µM.
`COc1ncc(-c2cc(C(F)(F)F)c3c(N)ncnn23)cc1C(=O)N1CCCC(Cc2ccc(C)cc2)C1` (stereo not drawn) [Example 130, 7-(6-methoxy-5-{3-[(4-methylphenyl)methyl]piperidine-1-carbonyl}pyridin-3-yl)-5-(trifluoromethyl)pyrrolo[2,1-f][1,2,4]triazin-4-amine]: the IC50 was found to be 0.078 µM.
Then `COc1ncc(-c2cc(CN3CCCC3)c3c(N)ncnn23)cc1C(=O)N[C@@H]1CN(C(=O)C2CC(F)(F)C2)C[C@@H]1F` [Example 1549, 5-(4-amino-5-(pyrrolidin-1-ylmethyl)pyrrolo[2,1-f][1,2,4]triazin-7-yl)-N-((3R,4S)-1-(3,3-difluorocyclobutane-1-carbonyl)-4-fluoropyrrolidin-3-yl)-2-methoxynicotinamide], with 0.0012 µM; and `C=CC(C)OC(=O)N1C[C@H](F)[C@H](NC(=O)c2cc(-c3cc(C(F)(F)F)c4c(N)ncnn34)cnc2OC)C1` (stereo partly drawn) [Example 1440, but-3-en-2-yl (3R,4S)-3-{5-[4-amino-5-(trifluoromethyl)pyrrolo[2,1-f][1,2,4]triazin-7-yl]-2-methoxypyridine-3-amido}-4-fluoropyrrolidine-1-carboxylate], with 0.0039 µM; and `COc1ncc(-c2cc(C(F)(F)F)c3c(N)ncnn23)cc1C(=O)N[C@@H]1CN(C(=O)CC2(O)CCCCC2)C[C@@H]1F` [Example 1208, 5-[4-amino-5-(trifluoromethyl)pyrrolo[2,1-f][1,2,4]triazin-7-yl]-N-[(3R,4S)-4-fluoro-1-[2-(1-hydroxycyclohexyl)acetyl]pyrrolidin-3-yl]-2-methoxypyridine-3-carboxamide], with 0.216 µM.
Then `CCCCS(=O)(=O)N1C[C@H](F)[C@H](NC(=O)c2cc(-c3cc(C(F)(F)F)c4c(N)ncnn34)cnc2OC)C1` [Example 1482, 5-[4-amino-5-(trifluoromethyl)pyrrolo[2,1-f][1,2,4]triazin-7-yl]-N-[(3R,4S)-1-(butane-1-sulfonyl)-4-fluoropyrrolidin-3-yl]-2-methoxypyridine-3-carboxamide], with 0.017 µM; and `COc1ncc(-c2cc(C(F)(F)F)c3c(N)ncnn23)cc1C(=O)N[C@@H]1CN(S(=O)(=O)C(c2ccccc2)C(F)(F)F)C[C@@H]1F` (stereo partly drawn) [Example 1498, 5-[4-amino-5-(trifluoromethyl)pyrrolo[2,1-f][1,2,4]triazin-7-yl]-N-[(3R,4S)-4-fluoro-1-(2,2,2-trifluoro-1-phenylethanesulfonyl)pyrrolidin-3-yl]-2-methoxypyridine-3-carboxamide], with 0.223 µM.
For the compound `COc1cc(C(=O)N[C@@H]2CN(C(=O)CC(C(F)(F)F)C(F)(F)F)C[C@@H]2F)cc(-c2cc(C(F)(F)F)c3c(N)ncnn23)c1` [Example 586, 3-[4-amino-5-(trifluoromethyl)pyrrolo[2,1-f][1,2,4]triazin-7-yl]-N-[(3R,4S)-4-fluoro-1-[4,4,4-trifluoro-3-(trifluoromethyl)butanoyl]pyrrolidin-3-yl]-5-methoxybenzamide], the IC50 came to 0.0036 µM.
Then `CC(C(=O)N1C[C@H](F)[C@H](NC(=O)c2c(F)ccc(-c3cc(C(F)(F)F)c4c(N)ncnn34)c2F)C1)C(F)(F)F` (stereo partly drawn) [Example 726, 3-[4-amino-5-(trifluoromethyl)pyrrolo[2,1-f][1,2,4]triazin-7-yl]-2,6-difluoro-N-[(3R,4S)-4-fluoro-1-(3,3,3-trifluoro-2-methylpropanoyl)pyrrolidin-3-yl]benzamide], with 0.234 µM.
